# Reference: PubChem BioAssay (Tox21)
# “And” between values parts separate entries of the source, which are not always exact repeats. Identical values can stand only once. Inconclusive results, whose numbers are uncertain, are shown with a selection of clear calls. For part of these data: No potency is given beside an inconclusive call; the fits are too rough. The source made the active and inactive calls. Unless noted, the call rests on the fitted dose curve; in most records, active means well fitted curve in the direction sought with a large enough effect in the repeat runs; inconclusive means weak or mixed curves; inactive means no such curve, though single readings can be large; an effect the other way counts as inactive or inconclusive.
# Experiments:
# [1] = molecular target: Estrogen receptor beta (Homo sapiens) (UniProt Q92731); assay: qHTS assay to identify small molecule agonists of the estrogen receptor beta (ER-beta) signaling pathway (AID 1259377; active means well fitted activation curve with a large enough effect in the signal ratio in the repeat runs, not every such curve was filed as active; inconclusive means weak or mixed curves, or effect the other way; the % refers to the signal ratio; further: potency means the concentration at half of the fitted maximal effect); details: ER-beta-UAS-bla HEK293T, beta-lactamase FRET ratio, 16 h; activation: at 92.4 µM (top of the series) unless noted
# In short: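 Ratiometric beta-lactamase FRET read-out came after 2 h substrate loading at room temperature. It followed 16 h compound treatment at 37C of GripTite HEK293T cells carrying a UAS-bla reporter, plated in 2% charcoal-stripped FBS medium.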
# [2] = molecular target: Peroxisome proliferator-activated receptor gamma (Homo sapiens) (UniProt P37231); assay: qHTS assay to identify small molecule antagonists of the peroxisome proliferator-activated receptor gamma (PPARg) signaling pathway (AID 743191; calls by dose curve; further: nearly all actives have a fitted effect of over 30% in size); details: HEK293H PPARg-UAS-bla, beta-lactamase ratio, antagonist, 17 h; ratio activity, negative = inhibition: at 62.6 µM (top of the series) unless noted
# In short: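 GeneBLAzer PPARg UAS-bla HEK293H cells, 5 h post-plating, exposed to compounds 17 h at 37C. LiveBLAzer B/G FRET substrate added for 1 h at room temperature; beta-lactamase reporter read by fluorescence intensity.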
# [3] = molecular target: Vitamin D3 receptor (Homo sapiens) (UniProt P11473); assay: qHTS assay to identify small molecule antagonists of the vitamin D receptor (VDR) signaling pathway (AID 743223; active means well fitted inhibition curve with a large enough effect in the signal ratio in the repeat runs, not every such curve was filed as active; inconclusive means weak or mixed curves, or effect the other way; inactive means no such curve, though single readings can be large or run the other way; the % refers to the signal ratio); details: VDR-UAS-bla HEK293T, beta-lactamase FRET ratio, 16 h; activity change, negative = inhibition: at 61 µM (top of the series) unless noted
# In short: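 Antagonist mode: compound added to VDR-bla cells alongside agonist 1alpha,25-dihydroxyvitamin D3 (3 nM final), incubation 16 h at 37C. Read-out is LiveBLAzer FRET fluorescence, 2 h at room temperature.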
# [4] = molecular target: Estrogen receptor beta (Homo sapiens) (UniProt Q92731); assay: qHTS assay to identify small molecule antagonists of the estrogen receptor beta (ER-beta) signaling pathway (AID 1259378; active means well fitted inhibition curve with a large enough effect in the signal ratio in the repeat runs, not every such curve was filed as active; inconclusive means weak or mixed curves, or effect the other way; inactive means no such curve, though single readings can be large or run the other way; the % refers to the signal ratio); details: ER-beta-UAS-bla HEK293T, beta-lactamase FRET ratio, 16 h; activity, negative = inhibition: at 92.4 µM (top of the series) unless noted
# In short: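 ER-beta-UAS-bla HEK293T cells in 2% charcoal-stripped FBS medium treated with compound plus 1nM final 17-beta-estradiol for 16 hr at 37C. Beta-lactamase reporter read by FRET substrate fluorescence after 2 hours at room temperature.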
# [5] = molecular target: Cytochrome P450 1A2 (Homo sapiens) (UniProt P05177); assay: Cytochrome P450 Family 1 Subfamily A Member 2 (CYP1A2) small molecule antagonists: luciferase reporter qHTS assay (AID 1671199); details: P450-Glo CYP1A2 enzyme, luciferin luminescence, 1 h; series mostly up to 115 µM; further: nearly all actives have a fitted effect of over 50% in size; further: potency means the concentration at half of the fitted maximal effect
# In short: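 Read-out is luminescence from luciferin detection reagent (20 min) proportional to CYP1A2 activity; compounds in DMSO preincubated 10 min with enzyme and proluciferin substrate, then NADPH regeneration solution, 1 h, room temperature.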
# [6] = qHTS assay for small molecule agonists of the antioxidant response element (ARE) signaling pathway (AID 743202; active means well fitted activation curve with a large enough effect in the signal ratio in the repeat runs, not every such curve was filed as active; inconclusive means weak or mixed curves, or effect the other way; inactive means no such curve, though single readings can be large or run the other way; the % refers to the signal ratio); details: HepG2 ARE-bla reporter, beta-lactamase FRET, 16 h; activation: at 73.3 µM (top of the series) unless noted
# In short: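 HepG2 ARE-bla cells; 16 h treatment at 37 C; FRET-based beta-lactamase fluorescence read after 2 h substrate incubation at room temperature.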
# [7] = qHTS assay to identify small molecule antagonists of the vitamin D receptor (VDR) signaling pathway - cell viability counter screen (AID 743225); details: VDR-bla HEK293T viability, CellTiter-Glo luminescence, 16 h; viability change, negative = cytotoxic: at 61 µM (top of the series) unless noted; further: nearly all actives have a fitted effect of over 50% in size; further: potency means the concentration at half of the fitted maximal effect
# In short: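 Cytotoxicity counter screen read by CellTiter-Glo luminescence (30 min, room temperature) in the same wells as the VDR-bla antagonist readout. HEK 293T VDR-UAS-bla cells had 16 h at 37C with compound and 3 nM (final) 1-alpha,25-dihydroxyvitamin D3, then 2 h with FRET substrate.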
# [8] = qHTS assay to identify small molecule antagonists of the sonic hedgehog signaling (Shh) pathway (AID 1259369; calls by dose curve; further: nearly all actives have a fitted effect of over 45% in size); details: NIH/3T3 Gli1-Luc reporter, Shh antagonist, luminescence 24 h; series mostly up to 92.4 µM
# In short: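 NIH/3T3 stable Gli1-Luc clone, 2,000 cells/well, 4hr settle; cpd + conditioned medium 24hr; Luc reagent 30min RT; luminescence.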
# [9] = molecular target: Cytochrome P450 2C9 (Homo sapiens) (UniProt P11712); assay: Cytochrome P450 Family 2 Subfamily C Member 9 (CYP2C9) small molecule antagonists: luciferase reporter qHTS assay (AID 1671198); details: P450-Glo CYP2C9 enzyme assay, luciferin luminescence; series mostly up to 115 µM; further: nearly all actives have a fitted effect of over 50% in size; further: potency means the concentration at half of the fitted maximal effect
# In short: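 P450-Glo proluciferin substrate with CYP2C9 enzyme; 10 min RT preincubation, then NADPH regeneration 1 h at 37C; luciferin detection reagent 20 min RT, luminescence in relative luminescence units.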
# Aromatase (Homo sapiens) = Aromatase (Homo sapiens) (UniProt P11511); assay: qHTS assay to identify aromatase inhibitors (AID 743083); details: MCF-7 aro ERE, testosterone-driven ERE luciferase, 24 h; series mostly up to 70.3 µM; further: nearly all actives have a fitted effect of over 55% in size
# [10] = qHTS assay to identify small molecule agonists of the estrogen receptor beta (ER-beta) signaling pathway - cell viability counter screen (AID 1259380); details: ER-beta-bla HEK293T viability, CellTiter-Glo luminescence, 16 h; series mostly up to 92.4 µM; further: nearly all actives have a fitted effect of over 30% in size; further: potency means the concentration at half of the fitted maximal effect
# In short: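 Measured: luminescence from CellTiter-Glo after 30 min at room temperature, added to wells already read for the LiveBLAzer FRET reporter (2 hr substrate); ER-beta-UAS-bla HEK293T cells had 16 hr compound treatment at 37C, 5% CO2.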
# [11] = molecular target: Androgen receptor (Homo sapiens) (UniProt P10275); assay: qHTS assay to identify small molecule antagonists of the androgen receptor (AR) signaling pathway (AID 743035; active means well fitted inhibition curve with a large enough effect in the signal ratio in the repeat runs, not every such curve was filed as active; inconclusive means weak or mixed curves, or effect the other way; inactive means no such curve, though single readings can be large or run the other way; the % refers to the signal ratio); details: HEK293 AR-UAS-bla, R1881-stimulated, beta-lactamase FRET, 16 h; activity change, negative = inhibition: at 58.5 µM (top of the series) unless noted
# In short: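 R1881 agonist challenge of a HEK293 UAS-beta-lactamase AR reporter line in the presence of compound (16 h, 37C); signal taken as FRET fluorescence after 2 h with LiveBLAzer B/G substrate at room temperature.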
# [12] = molecular target: Aryl hydrocarbon receptor (Homo sapiens) (UniProt P35869); assay: qHTS assay to identify small molecule that activate the aryl hydrocarbon receptor (AhR) signaling pathway (AID 743085); details: HepG2 AhR-luc (HG2L7.5c1), luciferase, 24 h; series mostly up to 70.3 µM; further: nearly all actives have a fitted effect of over 15% in size; further: potency means the concentration at half of the fitted maximal effect;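 on activation: HG2L7.5c1 human HepG2 liver cells with stably integrated DRE-driven firefly reporter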
# In short: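 Luminescence (ONE-Glo) from a dioxin-responsive-element luciferase reporter in HG2L7.5c1 HepG2 cells after 24 hr compound exposure at 37C; viability measured by CellTiter-Fluor fluorescence beforehand.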
# [13] = Caspase-3/7 induction in CHO-K1 cells by small molecules, qHTS cell viability counter screen (AID 1346979); details: CellTiter-Fluor fluorescence, 17 h; series mostly up to 92.4 µM; further: nearly all actives have a fitted effect of over 35% in size; further: potency means the concentration at half of the fitted maximal effect
# In short: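 Cytotoxicity counter screen: CellTiter-Fluor added to compound-treated wild-type CHO-K1 cells at 16 h (37C, 5% CO2), fluorescence measured 1 h later; same wells as caspase-3/7 measurement.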
# [14] = molecular target: Androgen receptor (Homo sapiens) (UniProt P10275); assay: qHTS assay to identify small molecule agonists of the androgen receptor (AR) signaling pathway (AID 743036; active means well fitted activation curve with a large enough effect in the signal ratio in the repeat runs, with a control signal flat, not every such curve was filed as active; inconclusive means weak or mixed curves, or effect the other way; inactive means no such curve, though single readings can be large or run the other way; the % refers to the signal ratio; further: potency means the concentration at half of the fitted maximal effect); details: HEK293 AR-UAS-bla GripTite, beta-lactamase FRET ratio, 16 h; activation: at 62.4 µM (top of the series) unless noted
# In short: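 Activation was read as beta-lactamase FRET signal from LiveBLAzer B/G substrate, added for 2 h at room temperature. Before that, GeneBLAzer AR-UAS-bla GripTite (HEK293) cells had 16 h compound exposure at 37C.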
# On the % scale 0 is the no-effect control and ±100 the full control effect; tags describe the fitted curve by direction and shape or compound fluorescence and quenching.
# Sequence of UniProt Q92731 (Q92731 whole entry, looked up): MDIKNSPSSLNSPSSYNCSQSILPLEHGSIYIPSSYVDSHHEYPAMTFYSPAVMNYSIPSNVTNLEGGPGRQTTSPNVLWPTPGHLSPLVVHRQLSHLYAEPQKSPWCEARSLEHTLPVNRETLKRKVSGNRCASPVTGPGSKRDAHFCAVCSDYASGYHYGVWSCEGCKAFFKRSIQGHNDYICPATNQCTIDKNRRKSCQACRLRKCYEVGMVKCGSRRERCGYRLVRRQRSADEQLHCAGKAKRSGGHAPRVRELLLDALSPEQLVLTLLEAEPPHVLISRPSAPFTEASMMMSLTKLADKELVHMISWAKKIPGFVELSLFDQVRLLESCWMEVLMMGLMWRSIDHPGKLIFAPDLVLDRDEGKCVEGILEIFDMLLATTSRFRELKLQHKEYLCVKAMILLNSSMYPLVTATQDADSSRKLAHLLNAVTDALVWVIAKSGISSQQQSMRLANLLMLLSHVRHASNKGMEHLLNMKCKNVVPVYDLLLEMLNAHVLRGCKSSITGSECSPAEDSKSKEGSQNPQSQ
# Sequence of UniProt P10275 (P10275 whole entry, looked up): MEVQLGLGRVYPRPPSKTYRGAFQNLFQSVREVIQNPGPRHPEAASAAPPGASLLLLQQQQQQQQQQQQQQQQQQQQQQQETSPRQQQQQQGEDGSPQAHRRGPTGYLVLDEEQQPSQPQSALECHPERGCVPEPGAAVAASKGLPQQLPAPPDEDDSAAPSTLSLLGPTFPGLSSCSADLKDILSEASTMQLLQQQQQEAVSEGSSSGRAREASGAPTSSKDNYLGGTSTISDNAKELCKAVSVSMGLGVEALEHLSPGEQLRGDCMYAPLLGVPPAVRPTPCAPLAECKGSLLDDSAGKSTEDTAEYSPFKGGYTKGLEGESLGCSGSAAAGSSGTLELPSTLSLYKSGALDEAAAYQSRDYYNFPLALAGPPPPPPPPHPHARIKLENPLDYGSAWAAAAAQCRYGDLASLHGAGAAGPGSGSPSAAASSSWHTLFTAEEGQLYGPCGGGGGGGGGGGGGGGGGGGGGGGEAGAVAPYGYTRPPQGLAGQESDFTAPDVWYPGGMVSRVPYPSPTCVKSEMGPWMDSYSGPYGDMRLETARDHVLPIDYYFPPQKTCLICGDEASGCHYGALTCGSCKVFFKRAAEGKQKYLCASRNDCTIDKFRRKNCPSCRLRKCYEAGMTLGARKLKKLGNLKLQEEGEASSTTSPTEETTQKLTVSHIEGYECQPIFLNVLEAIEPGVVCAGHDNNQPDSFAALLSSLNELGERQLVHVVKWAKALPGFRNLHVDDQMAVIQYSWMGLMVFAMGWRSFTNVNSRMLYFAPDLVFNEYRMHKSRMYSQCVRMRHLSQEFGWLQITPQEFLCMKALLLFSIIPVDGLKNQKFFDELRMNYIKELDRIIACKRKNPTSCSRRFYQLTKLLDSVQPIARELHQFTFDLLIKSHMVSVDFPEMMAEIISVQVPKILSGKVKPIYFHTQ
# Sequence of UniProt P11712 (P11712 whole entry, looked up): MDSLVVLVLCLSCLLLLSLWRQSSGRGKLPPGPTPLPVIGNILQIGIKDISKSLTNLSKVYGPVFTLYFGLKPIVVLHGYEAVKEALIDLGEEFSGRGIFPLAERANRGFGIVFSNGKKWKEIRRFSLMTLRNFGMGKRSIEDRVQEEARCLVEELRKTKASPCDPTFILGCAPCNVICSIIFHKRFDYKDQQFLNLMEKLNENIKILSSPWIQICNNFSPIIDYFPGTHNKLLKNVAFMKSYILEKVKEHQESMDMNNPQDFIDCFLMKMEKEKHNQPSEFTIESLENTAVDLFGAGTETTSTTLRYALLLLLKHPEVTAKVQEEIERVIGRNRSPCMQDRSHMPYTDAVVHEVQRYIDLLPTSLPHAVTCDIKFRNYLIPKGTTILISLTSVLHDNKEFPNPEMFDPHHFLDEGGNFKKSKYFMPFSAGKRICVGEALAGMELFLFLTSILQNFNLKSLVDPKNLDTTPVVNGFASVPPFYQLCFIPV
# Sequence of UniProt P37231 (P37231 whole entry, looked up): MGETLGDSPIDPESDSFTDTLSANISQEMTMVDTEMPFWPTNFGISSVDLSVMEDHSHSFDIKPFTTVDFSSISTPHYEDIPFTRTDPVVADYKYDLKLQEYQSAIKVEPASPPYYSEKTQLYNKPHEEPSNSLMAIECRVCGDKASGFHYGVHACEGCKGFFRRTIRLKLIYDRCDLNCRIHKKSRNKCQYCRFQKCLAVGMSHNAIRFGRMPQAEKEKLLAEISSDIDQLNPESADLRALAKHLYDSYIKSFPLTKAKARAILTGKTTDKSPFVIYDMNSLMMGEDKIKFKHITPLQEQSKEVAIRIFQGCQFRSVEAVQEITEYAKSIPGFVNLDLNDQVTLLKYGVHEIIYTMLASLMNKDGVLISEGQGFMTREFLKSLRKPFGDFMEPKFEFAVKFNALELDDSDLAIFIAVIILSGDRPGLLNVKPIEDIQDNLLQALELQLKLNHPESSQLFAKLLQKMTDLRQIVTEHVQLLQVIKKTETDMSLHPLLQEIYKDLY
# Sequence of UniProt P11473 (P11473 whole entry, looked up): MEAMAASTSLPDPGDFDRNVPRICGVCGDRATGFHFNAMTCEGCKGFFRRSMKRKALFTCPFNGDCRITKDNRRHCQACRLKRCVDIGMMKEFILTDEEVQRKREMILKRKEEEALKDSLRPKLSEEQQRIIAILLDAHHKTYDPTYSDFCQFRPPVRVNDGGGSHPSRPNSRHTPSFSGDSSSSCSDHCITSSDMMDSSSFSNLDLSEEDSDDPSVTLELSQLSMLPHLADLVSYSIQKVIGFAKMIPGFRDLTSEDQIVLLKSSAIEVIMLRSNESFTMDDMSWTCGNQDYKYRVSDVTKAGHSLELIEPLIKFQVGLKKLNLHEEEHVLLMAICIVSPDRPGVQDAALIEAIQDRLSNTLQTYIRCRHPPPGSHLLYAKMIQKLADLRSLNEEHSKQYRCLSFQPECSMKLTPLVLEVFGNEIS
# Sequence of UniProt P05177 (P05177 whole entry, looked up): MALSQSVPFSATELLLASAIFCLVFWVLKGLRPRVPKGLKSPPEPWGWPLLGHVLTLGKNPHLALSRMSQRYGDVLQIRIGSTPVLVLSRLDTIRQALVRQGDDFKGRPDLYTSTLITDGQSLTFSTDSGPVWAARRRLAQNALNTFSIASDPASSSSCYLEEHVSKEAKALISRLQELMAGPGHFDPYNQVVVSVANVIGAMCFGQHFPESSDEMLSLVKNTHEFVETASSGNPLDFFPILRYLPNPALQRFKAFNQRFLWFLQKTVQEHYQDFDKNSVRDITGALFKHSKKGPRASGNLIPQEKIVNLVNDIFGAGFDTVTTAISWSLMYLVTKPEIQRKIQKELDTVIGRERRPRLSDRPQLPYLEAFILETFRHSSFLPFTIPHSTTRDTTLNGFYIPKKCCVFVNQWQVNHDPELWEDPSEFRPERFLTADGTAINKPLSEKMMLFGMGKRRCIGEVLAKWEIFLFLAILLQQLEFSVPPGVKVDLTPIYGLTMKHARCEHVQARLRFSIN
# Sequence of UniProt P35869 (P35869 whole entry, looked up): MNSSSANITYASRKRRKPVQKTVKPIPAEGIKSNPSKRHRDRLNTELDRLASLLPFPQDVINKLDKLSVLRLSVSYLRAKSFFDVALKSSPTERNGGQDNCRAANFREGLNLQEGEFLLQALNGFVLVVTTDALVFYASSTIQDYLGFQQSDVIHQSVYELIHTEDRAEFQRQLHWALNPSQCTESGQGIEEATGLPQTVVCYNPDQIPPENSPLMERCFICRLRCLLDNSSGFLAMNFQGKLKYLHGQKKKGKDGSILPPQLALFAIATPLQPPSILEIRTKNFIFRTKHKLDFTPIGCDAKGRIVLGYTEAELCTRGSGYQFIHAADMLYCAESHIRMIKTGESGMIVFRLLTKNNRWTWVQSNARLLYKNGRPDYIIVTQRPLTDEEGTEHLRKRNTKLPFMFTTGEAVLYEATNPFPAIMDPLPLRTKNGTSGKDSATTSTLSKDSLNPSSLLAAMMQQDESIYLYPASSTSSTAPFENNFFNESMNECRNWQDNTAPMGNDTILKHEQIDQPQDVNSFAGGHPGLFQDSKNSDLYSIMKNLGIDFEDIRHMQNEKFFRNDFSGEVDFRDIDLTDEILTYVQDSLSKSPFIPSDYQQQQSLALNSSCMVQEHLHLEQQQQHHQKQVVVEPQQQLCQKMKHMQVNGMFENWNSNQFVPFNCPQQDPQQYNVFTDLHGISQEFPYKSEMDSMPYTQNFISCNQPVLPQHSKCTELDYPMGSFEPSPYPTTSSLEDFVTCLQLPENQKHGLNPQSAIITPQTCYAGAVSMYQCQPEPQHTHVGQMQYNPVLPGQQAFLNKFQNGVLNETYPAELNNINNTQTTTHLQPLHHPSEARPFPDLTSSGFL
# Sequence of UniProt P11511 (P11511 whole entry, looked up): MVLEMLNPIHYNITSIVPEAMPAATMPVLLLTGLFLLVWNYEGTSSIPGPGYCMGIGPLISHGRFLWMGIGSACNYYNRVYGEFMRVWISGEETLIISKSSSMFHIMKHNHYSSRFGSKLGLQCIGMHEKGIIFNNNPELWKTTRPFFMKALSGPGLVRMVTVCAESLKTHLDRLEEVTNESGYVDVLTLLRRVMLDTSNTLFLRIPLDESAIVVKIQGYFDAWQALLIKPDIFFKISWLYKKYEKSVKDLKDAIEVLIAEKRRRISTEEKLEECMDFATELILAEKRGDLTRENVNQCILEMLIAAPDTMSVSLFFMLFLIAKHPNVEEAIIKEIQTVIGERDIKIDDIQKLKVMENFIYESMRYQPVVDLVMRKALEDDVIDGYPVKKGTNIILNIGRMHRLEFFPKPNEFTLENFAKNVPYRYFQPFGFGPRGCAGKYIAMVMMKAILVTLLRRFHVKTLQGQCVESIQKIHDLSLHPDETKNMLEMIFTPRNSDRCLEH
structure (smiles),measurement,setting,value
OC1OC[C@@H](O)[C@H](O)[C@H]1O (stereo not given in full),Potency,[1],inconclusive [activator]
Cc1cccc([N+](=O)[O-])c1C(=O)O,Potency,[2],inactive
same,"activity change, negative = inhibition",[3],inconclusive: -3.96%
same,Potency,[4],inactive
same,Potency,[5],"inconclusive [inhibitor, partial curve]"
COC(=O)OC,activation,[6],inconclusive: 20.1% and inconclusive: -34.3%
same,"activity change, negative = inhibition",[3],inconclusive: 4.68% and inconclusive: -19%
same,Potency,[7],inactive
same,Potency,[8],inactive
same,activation,[1],inconclusive: 11.1%
same,Potency,[9],inactive
CC(=O)CC(=O)N(C)C,Potency,[8],inactive
same,Potency,[5],"inconclusive [inhibitor, partial curve] and inactive"
CC(C)NC(=O)c1ccccc1N,Potency,Aromatase (Homo sapiens),inactive
same,Potency,[2],inactive
same,Potency,[7],inactive
same,Potency,[8],inactive
same,Potency,[9],inactive
same,Potency,[5],"inconclusive [inhibitor, partial curve]"
CC(C)c1ccc(C=O)cc1,"activity change, negative = inhibition",[3],inconclusive: 28.1%
same,Potency,[10],inactive
same,Potency,[5],inactive
CC(C)NCC(O)COc1ccc(COCCOC(C)C)cc1 (stereo not given),Potency,[11],inactive
same,Potency,[12],"inconclusive [activator, partial curve, poor fit]"
same,"activity change, negative = inhibition",[3],inconclusive: -3.16%
same,Potency,[8],inactive
same,Potency,[1],inactive
same,Potency,[4],inactive
same,Potency,[9],inactive
CCCCCCCCCCCCCCCCCO,"activity change, negative = inhibition",[8],inactive: -1.47% [at 19 µM]
same,Potency,[10],"inconclusive [cytotoxic, single point]"
CC(=O)OC1C2(C)CCC(C2)C1(C)C (stereo not given),activation,[6],inconclusive: -4.61%
same,Potency,[7],inactive
same,Potency,[4],inactive
same,Potency,[5],"inconclusive [inhibitor, partial curve, poor fit]"
Cc1cc(=O)[nH]c(=O)[nH]1,Potency,[4],inactive
Cc1nc([N+](=O)[O-])cn1-c1ccc([N+](=O)[O-])cc1,Potency,[12],inactive
same,Potency,[2],inactive
same,Potency,[6],inactive
same,Potency,[13],inactive
same,Potency,[5],inactive
O=C(O)CCn1c2c(c3ccccc31)C[C@H](NS(=O)(=O)c1ccc(F)cc1)CC2,Potency,[10],inactive
CC(C)Cn1cnc2c1c(=O)n(C)c(=O)n2C,Potency,[1],"inconclusive [falling, single point]"
same,Potency,[10],"inconclusive [cytotoxic, single point]"
same,Potency,[9],inactive
same,Potency,[5],active: 15.5 µM
CCCCC/C=C\CCC=O,activation,[6],inconclusive: -12.6%
same,Potency,[8],inactive
same,Potency,[9],"inconclusive [inhibitor, partial curve]"
same,Potency,[5],"inconclusive [inhibitor, full curve]"
Cc1cccc(C)c1NC(=O)c1ccccc1C(=O)O,Potency,[14],inactive
same,Potency,[2],inactive
same,Potency,[6],inactive
same,Potency,[1],inactive
same,Potency,[13],"inconclusive [rising, single point]"
same,Potency,[5],inactive
CC(=O)OC(C)=O,Potency,[10],inactive
same,Potency,[13],inactive
C=C[C@@H](C)CCC=C(C)C,Potency,[2],inactive
same,Potency,[6],inactive
same,Potency,[7],"inconclusive [rising, full curve]"
same,Potency,[8],inactive
same,Potency,[1],inactive
same,Potency,[9],inactive
O=C(O)Cc1csc(-c2ccc(Cl)cc2)n1,Potency,[14],"inconclusive [rising, partial curve, poor fit]"
same,Potency,[1],inactive
same,Potency,[9],inactive
Cn1c(=O)[nH]c2ncn(C)c2c1=O,Potency,[10],inactive
same,Potency,[13],inactive
same,Potency,[9],inactive
N=C(N)c1ccccc1,"activity change, negative = inhibition",[3],inconclusive: 9.01%
same,Potency,[7],"inconclusive [cytotoxic, single point]"
same,Potency,[4],inactive
same,Potency,[10],inactive
same,Potency,[13],inactive
O=C1OC(=O)c2ccc3c4c(ccc1c24)C(=O)OC3=O,activation,[1],inconclusive: -0.213%
same,Potency,[4],inactive
same,Potency,[5],inactive
OCCCS,activation,[1],inconclusive: 11.1%
same,Potency,[13],"inconclusive [rising, partial curve, poor fit]"
N#Cc1cscn1,Potency,[1],inactive
same,"activity, negative = inhibition",[4],inconclusive: 12.2%
same,Potency,[5],inactive
O=C(Nc1cccc(C2=NCCN2)c1)Nc1cccc(C2=NCCN2)c1,Potency,[6],inactive
same,Potency,[7],"inconclusive [cytotoxic, full curve, poor fit]"
same,"activity change, negative = inhibition",[8],inactive: 17.1% [at 19 µM]
CCOC(=O)c1cccnc1,"ratio activity, negative = inhibition",[2],inconclusive: -1.13%
same,Potency,[4],inactive
same,Potency,[13],inactive
same,Potency,[5],"inconclusive [inhibitor, partial curve]"
